# Some of the results follow.
# T1: UNK ZnF1-6 (called full-length) (human, UniProt Q9C0B0 30-357)
# T1 sequence: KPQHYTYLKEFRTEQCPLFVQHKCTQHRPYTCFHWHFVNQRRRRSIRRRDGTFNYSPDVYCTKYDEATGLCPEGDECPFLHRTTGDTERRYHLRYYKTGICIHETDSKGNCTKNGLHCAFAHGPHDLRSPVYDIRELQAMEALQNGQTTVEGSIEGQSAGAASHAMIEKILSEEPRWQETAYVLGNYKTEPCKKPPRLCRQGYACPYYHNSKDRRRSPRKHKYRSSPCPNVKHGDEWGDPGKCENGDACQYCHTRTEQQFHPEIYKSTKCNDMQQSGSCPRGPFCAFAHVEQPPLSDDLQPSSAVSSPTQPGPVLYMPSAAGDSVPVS
# B1: chrX:152166439:152166540:-|3pUTR|ENSG00000011677|unk|total|mutant (ssRNA)
# RNA: GGGAGUUCUACAGUCCGACGAUCCACCACAAGCAGAUUCUCCCUGCCCACCGGCUGAACAAAGCUCCUAAGGGGUGUAUCAUCCGCUGCUGGUUGCCUUUUCAUCCAUCCUUUCCCCGUCCCCUGCUUCCUUGCCAUUGCUGGCAACAGAGGAUUGAGCAUCA
# B2: chr17:2060671:2060772:-|3pUTR|ENSG00000070366|unk|total|mutant (ssRNA)
# RNA: GGGAGUUCUACAGUCCGACGAUCCCGUGCUCUCGGGUGGCCUCCACCUGCUCCCUCUCUCCUCACUGGCCUUUCUUUCCGUCCCGCUUCCUCUUCAGGAAAUGUCCUGACUCCCCUCAGCUCCCCCUUCACCCCUCCUUGCCCCAACAGAGGAUUGAGCAUCA
# B3: chr2:37079119:37079331:-|CDS|ENSG00000008869|control|control|control (ssRNA)
# RNA: GGGAGUUCUACAGUCCGACGAUCAGUAGUUCACCUGGACCACCUACACGAAAAUUAUUAGCUAAAAAUCUCGCAGCCCUUUAUAGCAUUGGGGAUACUUUCACAGUUUUUCAGACACUUGAUAAAUGCAAUGACAUUAUCAGACAACAGAGGAUUGAGCAUCA
# B4: ENSG00000124205:stop:overlap|stop_codon|ENSG00000124205|stop_codon|NA|stop_codon (ssRNA)
# RNA: GGGAGUUCUACAGUCCGACGAUCCCAACAGAGGCCUGUGUCAAAGGAGGUUGAAGUCAAGGACCAACAAAGCAAGCAGGCUUUAGACCUCCACCAUCCAAAGCUCAUGCCCGGCAGUGGACUCGCCCUCGCUCCAUCUACCUGCAACAGAGGAUUGAGCAUCA
# B5: chr15:93027272:93027374:+|3pUTR|ENSG00000173575|unk|FALSE|unique (ssRNA)
# RNA: GGGAGUUCUACAGUCCGACGAUCCCAGGAAUCUGUGAGGAUGGUAUUCCCUGGAGUCUGGCUUUGAAAGAUUUCAUUGUUGGUAGAAAUAACAGGUUGAGAAAGAGGGAGUUAGCAUCACCUAAAACCUGCACGUGAACAAGGCAACAGAGGAUUGAGCAUCA
# B6: chr2:74529670:74529771:-|5pUTR|ENSG00000115307|unk|total|mutant (ssRNA)
# RNA: GGGAGUUCUACAGUCCGACGAUCUCUCCGCCGGACGCGAGUUGUGAGACGGCCCAAGGGGCCGCGGGGUAUGCUGGGACCGCCCGCCCUUCCGGCGCGCCUCAGGACUUCGGGUCCCCUCACCCCGGGCGGAUGCCCAAAGACCAACAGAGGAUUGAGCAUCA
# B7: chr2:216122066:216122255:+|CDS|ENSG00000079246|unk|FALSE|unique (ssRNA)
# RNA: GGGAGUUCUACAGUCCGACGAUCCCAUGGGCCUUCCUUUCCACUAAAAGGAAUUACCGAACAGCAAAAAGAAGGUCUUGAGAUAGUGAAAAUGGUGAUGAUAUCUUUAGAAGGUGAAGAUGGGUUGGAUGAAAUUUAUUCAUUCAACAGAGGAUUGAGCAUCA
# B8: chr12:88493871:88493972:-|3pUTR|ENSG00000049130|msi1|FALSE|unique (ssRNA)
# RNA: GGGAGUUCUACAGUCCGACGAUCAAGUAUCUUGACCAUAAAAAGUCAUUGCUGUUCUUGUUUCUAAUGUAAAUAGUGUCCAUUAGUAAAAGUGAAAUUCAGUCUUAAGUAGGGUGAAUUGGAUCACCAUUUACACAAGAGAUGCAACAGAGGAUUGAGCAUCA
# B9: chr19:12875797:12875908:-|3pUTR|ENSG00000105612|unk|total|mutant (ssRNA)
# RNA: GGGAGUUCUACAGUCCGACGAUCUUCGAGACCAGCCUGGGCUACACCGUGAGACCACAUCUCUACCCGAACUUAAAAAAAGUCCGCCAGGCACGGUGAUAAAUGCCUGCCGUCCCAGCCACUGAAGCCAGAGGAUCGAUUGAACAACAGAGGAUUGAGCAUCA
# B10: chr20:3933335:3933436:-|3pUTR|ENSG00000101236|msi1|FALSE|bound_elsewhere (ssRNA)
# RNA: GGGAGUUCUACAGUCCGACGAUCUUACAACACCUGCUAUCAAAUCAUCUAAGCUGAAAACAUGAGAUGCGCUUGGAAAGGCCUAGUCAGAAGCCAUUUCCUCUUAUCAUUUCCCUCUCCUAUGCACCAGUAAGGCCCGUCCAGCAACAGAGGAUUGAGCAUCA
# B11: chr7:99177919:99178066:-|CDS|ENSG00000185467|control|control|control (ssRNA)
# RNA: GGGAGUUCUACAGUCCGACGAUCGAGAAACGGUCUGAGAAGGAAAACCUGUGUCUUCUGAUAGAAGAACUUGGUGGGAUCGAUAGAAUUGAGGCUUUACAGCUGCAUGAGAACCGUCAAAUUGGCCAGUCGGCUUUGAACAUCCAACAGAGGAUUGAGCAUCA
# B12: chr20:31606305:31606406:+|3pUTR|ENSG00000125968|msi1|total|mutant (ssRNA)
# RNA: GGGAGUUCUACAGUCCGACGAUCUGAGGCACUGGCGAGGAGAGGGCGCUCCUCUCUGCACACCUACCCGUCACCAGAGACUUCCGGGGGUGGGAUUCCACUCGUGUGUUUCUAUUUUUUGAAAAGCAGACAUUUUAAAAAAUGCAACAGAGGAUUGAGCAUCA
# B13: chr4:112268257:112268372:+|CDS|ENSG00000138660|unk|FALSE|unique (ssRNA)
# RNA: GGGAGUUCUACAGUCCGACGAUCAGUAAUCCUACAUCAGCCUCUGAUGAUUCCAAUGGGCUGGAGUGGGAAAAUGAUUUUGUUAGUGCCGAAAUGGAUGAUAAUGGAAAUUCCGAGUAUUCUGGAUUUGUAAAUCCUGUAUUACAACAGAGGAUUGAGCAUCA
# B14: chr6:1612588:1612689:+|3pUTR|ENSG00000054598|msi1|FALSE|unique (ssRNA)
# RNA: GGGAGUUCUACAGUCCGACGAUCUUUAUUCAUGGACUUGUUUUAAAAUGUAAAUUGCAACAUAGUAAUUUAUUUUUAAUUUGUAGUUGGAUGUCGUGGACCAAACGCCAGAAAGUGUUCCCAAAACCUGACGUUAAAUUGCCUCAACAGAGGAUUGAGCAUCA
# B15: chr2:130338606:130338707:-|3pUTR|ENSG00000136710|unk|FALSE|unique (ssRNA)
# RNA: GGGAGUUCUACAGUCCGACGAUCUACUCAGCCAAAAGAUCAGGACAAUAUGACUUGAGUCCACAAGGACACAAACACCUGAGUAGCUGGGCAGCCCUUGGCAGGGUCUAAGCCAGGAAGUAAAAAUGAUCUGGCCUAGAUAUUCAACAGAGGAUUGAGCAUCA
# B16: ENSG00000070961:be:win_5451|3pUTR|ENSG00000070961|bound_else_gene|NA|bound_elsewhere_windowed (ssRNA)
# RNA: GGGAGUUCUACAGUCCGACGAUCUGAUAUUUUUGGUGGGUGGGGGAAAUCUUUUUCUCACCAUCAAAUCUUUGCAGUAAUCCUCUGCAGGUCUUAGAAACACAUUGGCUCUGUCAGCAUUUGUAAUUGUACAUUUAUUCAUCACAACAGAGGAUUGAGCAUCA
# Molecular target: T1, UNK ZnF1-6 (called full-length)
# Assay: nsRBNS (natural sequence RNA bind-n-seq); RBNS binding buffer (assumed for nsRBNS): 25 mM Tris pH 7.5, 150 mM KCl, 3 mM MgCl2, 0.01% Triton X-100, 500 ug/ml BSA, 20 U/ml SUPERase-In, 4 C; UNK is unkempt and MSI1 is Musashi-1; names of the RNAs are library labels; protein concentration not given here; high values mean tight binding
row,Binder,binding signal
1,B1,0.903 enrichment R
2,B2,1.21 enrichment R
3,B3,0.798 enrichment R
4,B4,0.854 enrichment R
5,B5,0.605 enrichment R
6,B6,0.575 enrichment R
7,B7,0.417 enrichment R
8,B8,0.337 enrichment R
9,B9,0.604 enrichment R
10,B10,0.531 enrichment R
11,B11,0.691 enrichment R
12,B12,0.735 enrichment R
13,B13,0.32 enrichment R
14,B14,0.455 enrichment R
15,B15,0.466 enrichment R
16,B16,0.936 enrichment R

# From article PMC12136788
